# Source: the RNAGym collection of RNA variant scans (doi:10.1093/nar/gkz1192)
# The source gives no read counts; variants with many changes may rest on few reads.
# B1: CPEB3 Ribozyme (parent)
# chain: UAACAGGGGGCCACAGCAGAAGCGUUCACGUCGCAGCCCCUGUCAGAUUCUGGUGAAUCUGCGAAUUCUGCUGUAUAUCUC
# Variants of: B1
# Experiment: self-cleavage, relative activity (ratio to wild type); higher = more cleavage; in vitro, sequencing
# In short: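 For each CPEB3 ribozyme variant, relative activity is its cleaved/total read fraction divided by the unmutated ribozyme's. Barcoded error-prone PCR libraries were transcribed by T7 RNA polymerase (5 hours, 37°C) and held in DNase I for 15 min before an EDTA stop, with cleavage occurring throughout. Template-switching reverse transcription and Illumina sequencing were used to read the RNAs. A 5-read minimum applied, and results are the mean of three batches.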
row,Variant,self-cleavage
1,UAACAGGGGGCCACAGCAGAAGCGUUCACGUCGCAGCCCCUGUCAGAUUCUGGUGGAUCUGCGAAUUCUGCUGUAUGUCCC,0.7
2,UAACAGGGGGCCACAGCAGAAGCGUUCACGUCGCAGCCCCUGUCAGAUUCUGGUGGAUAUGCGAUUUCCGCUGUAUAUCUC,0.24
3,UAACAGGGGGCCACAGCAGAAGCGUUCACGUCGCAGCCCCUGUCAGAUUCUGGUGGAUCUGUGAAUUCUGCUGGAUAUCUC,0.14
4,UAACAGGGGGCCACAGCAGAAGCGUUCACGUCGCAGCCCCUGUCAGAUUCUGGUGGAUCUGCGAAUUCUGAUGUAUACCUC,0.15
5,UAACAGGGGGCCACAGCAGAAGCGUUCACGUCGCAGCCCCUGUCAGAUUCUGGUGGAUCUGCGAAUUCUGAUGUAUACCGC,0.3
6,UAACAGGGGGCCACAGCAGAAGCGUUCACGUCGCAGCCCCUGUCAGAUUCUGGUGGAUCUGCAAAUUCCGCUGUAUAUCUC,0.37
7,UAACAGGGGGCCACAGCAGAAGCGUUCACGUCGCAGCCCCUGUCAGAUUCUGGUGGAUCUGCAAAUUCUGCUGCAUAUCUC,1.2
8,UAACAGGGGGCCACAGCAGAAGCGUUCACGUCGCAGCCCCUGUCAGAUUCUGGUGGAACUGCGAACUCUGCUGUAUAUCUC,0.17
9,UAACAGGGGGCCACAGCAGAAGCGUUCACGUCGCAGCCCCUGUCAGAUUCUGGUGGACUUGCGAAUUCUGCUGUAUAUCUC,0.15
10,UAACAGGGGGCCACAGCAGAAGCGUUCACGUCGCAGCCCCUGUCAGAUUCUGGUGGACCUGCGAACUCUGCUGUAUACCUC,0.23
11,UAACAGGGGGCCACAGCAGAAGCGUUCACGUCGCAGCCCCUGUCAGAUUCUGGUGGACCUGCGAAUUCAGCUGUAUAUCUC,0.3
12,UAACAGGGGGCCACAGCAGAAGCGUUCACGUCGCAGCCCCUGUCAGAUUCUGGUGGACCUGCGAAUUCUGCUGUAUAUCCC,0.35
13,UAACAGGGGGCCACAGCAGAAGCGUUCACGUCGCAGCCCCUGUCAGAUUCUGGUGGAUCAGCGAAUUCUGCUGCAUAUCUC,0.94
14,UAACAGGGGGCCACAGCAGAAGCGUUCACGUCGCAGCCCCUGUCAGAUUCUGGUGGAUCAGCGAAUUCUGCUGUAUACCUC,0.43
15,UAACAGGGGGCCACAGCAGAAGCGUUCACGUCGCAGCCCCUGUCAGAUUCUGGUGGAUCCUCGAAUUCUGCUGUAAAUCUC,0.15
16,UAACAGGGGGCCACAGCAGAAGCGUUCACGUCGCAGCCCCUGUCAGAUUCUGGUGGAUCCGCGAAAUCUGCUGUAUAUCUC,0.17
17,UAACAGGGGGCCACAGCAGAAGCGUUCACGUCGCAGCCCCUGUCAGAUUCUGGUGGAUCCGCGAAUUCAGCUGUAUAUCUC,0.21

row,Variant,self-cleavage
1,UAACAGGGGGCCACAGCAGAAGCGUUCACGUCGCAGCCCCUGUCAGAUUCUGGUGGAUCCGCGAAUUCUGCUGAAUUUCUC,0.9
2,UAACAGGGGGCCACAGCAGAAGCGUUCACGUCGCAGCCCCUGUCAGAUUCUGGUGGAUCCGCGAAUUCUGCUGUAUACCUC,0.42
3,UAACAGGGGGCCACAGCAGAAGCGUUCACGUCGCAGCCCCUGUCAGAUUCUGGUGGAUCUGCGAAACCUGCUGUAUAUCUC,0.16
4,UAACAGGGGGCCACAGCAGAAGCGUUCACGUCGCAGCCCCUGUCAGAUUCUGGUGGAUCUGCGAACUCUACAGUAUAUCUC,0.32
5,UAACAGGGGGCCACAGCAGAAGCGUUCACGUCGCAGCCCCUGUCAGAUUCUGGUGGAUCUGCGAAUCCUGCUGUAUAACUC,0.17
6,UAACAGGGGGCCACAGCAGAAGCGUUCACGUCGCAGCCCCUGUCAGAUUCUGGUGGAUCUGCGAAUUCAGCCAUAUAUCUC,0.3
7,UAACAGGGGGCCACAGCAGAAGCGUUCACGUCGCAGCCCCUGUCAGAUUCUGGUGGAUCUGCGAAUUCAGCUGUAUACCUC,0.43
8,UAACAGGGGGCCACAGCAGAAGCGUUCACGUCGCAGCCCCUGUCAGAUUCUGGUGUCUCAGCGAAUUCUGCGGUACAUCUC,0.18
9,UAACAGGGGGCCACAGCAGAAGCGUUCACGUCGCAGCCCCUGUCAGAUUCUGGUGUUUCUGCGAAUUCCGCUGUAUAUCUC,0.42
10,UAACAGGGGGCCACAGCAGAAGCGUUCACGUCGCAGCCCCUGUCAGAUUCUGGUGUAUCUGCGUAUCCCGCUGUAUAUCUC,0.24
11,UAACAGGGGGCCACAGCAGAAGCGUUCACGUCGCAGCCCCUGUCAGAUUCUGGUGUAUCUGCGAGUUCUGCAGUAUAUCUC,0.33
12,UAACAGGGGGCCACAGCAGAAGCGUUCACGUCGCAGCCCCUGUCAGAUUCUGGUGUAUCUGCGAGUUCUGCAGAAUACCUC,0.28
13,UAACAGGGGGCCACAGCAGAAGCGUUCACGUCGCAGCCCCUGUCAGAUUCUGGUGUAUCUGCGAGUUCUGCUGUAUAGCUC,0.22
14,UAACAGGGGGCCACAGCAGAAGCGUUCACGUCGCAGCCCCUGUCAGAUUCUGGUGUAUCUGCGAAUUCUGCUGUGUAACUC,0.6
15,UAACAGGGGGCCACAGCAGAAGCGUUCACGUCGCAGCCCCUGUCAGAUUCUGGUGUAUAUGCGAAUUCUGCUGCAUAUCUC,0.25
16,UAACAGGGGGCCACAGCAGAAGCGUUCACGUCGCAGCCCCUGUCAGAUUCUGGUGUAUCUGUGAAUUCAGCUGUAUAUCUC,0.34
17,UAACAGGGGGCCACAGCAGAAGCGUUCACGUCGCAGCCCCUGUCAGAUUCUGGUGUAUCUGCGAAUUCUGCUGUAUAUUCC,0.72
